The values that follow come from publication PMC9911399, “Two distinct binding modes provide the RNA-binding protein RbFox with extraordinary sequence specificity”.

Numbering of substitutions follows the chain as printed; changes in the protein carry UniProt numbers. This is one part of the list.

B1: GAUUUUU (DNA:RNA)
RNA: GGGAGACCGGAAUUCAGAUUGUCCGAUUUUUUUAAAUCCCGUCGUAGCCACCA
DNA 1: CAATCTGAATTCCGGTCTCCC
DNA 2: TGGTGGCTACGACGGGATT
B2: AAGUGUA (DNA:RNA)
RNA: B1 RNA with G25A, U27G, U29G, U31A
DNA 1: CAATCTGAATTCCGGTCTCCC
DNA 2: TGGTGGCTACGACGGGATT
B3: GAGGGAG (DNA:RNA)
RNA: B1 RNA with U27G, U28G, U29G, U30A, U31G
DNA 1: CAATCTGAATTCCGGTCTCCC
DNA 2: TGGTGGCTACGACGGGATT
B4: UACCGCU (DNA:RNA)
RNA: B1 RNA with G25U, U27C, U28C, U29G, U30C
DNA 1: CAATCTGAATTCCGGTCTCCC
DNA 2: TGGTGGCTACGACGGGATT
B5: UCGUAUA (DNA:RNA)
RNA: B1 RNA with G25U, A26C, U27G, U29A, U31A
DNA 1: CAATCTGAATTCCGGTCTCCC
DNA 2: TGGTGGCTACGACGGGATT
B6: GCGAUGA (DNA:RNA)
RNA: B1 RNA with A26C, U27G, U28A, U30G, U31A
DNA 1: CAATCTGAATTCCGGTCTCCC
DNA 2: TGGTGGCTACGACGGGATT
B7: UGCUUUC (DNA:RNA)
RNA: B1 RNA with G25U, A26G, U27C, U31C
DNA 1: CAATCTGAATTCCGGTCTCCC
DNA 2: TGGTGGCTACGACGGGATT
B8: CUUAGUC (DNA:RNA)
RNA: B1 RNA with G25C, A26U, U28A, U29G, U31C
DNA 1: CAATCTGAATTCCGGTCTCCC
DNA 2: TGGTGGCTACGACGGGATT
B9: GAGUUGA (DNA:RNA)
RNA: B1 RNA with U27G, U30G, U31A
DNA 1: CAATCTGAATTCCGGTCTCCC
DNA 2: TGGTGGCTACGACGGGATT
B10: CUCUCAC (DNA:RNA)
RNA: B1 RNA with G25C, A26U, U27C, U29C, U30A, U31C
DNA 1: CAATCTGAATTCCGGTCTCCC
DNA 2: TGGTGGCTACGACGGGATT
B11: CACGGAA (DNA:RNA)
RNA: B1 RNA with G25C, U27C, U28G, U29G, U30A, U31A
DNA 1: CAATCTGAATTCCGGTCTCCC
DNA 2: TGGTGGCTACGACGGGATT
B12: AUCUACG (DNA:RNA)
RNA: B1 RNA with G25A, A26U, U27C, U29A, U30C, U31G
DNA 1: CAATCTGAATTCCGGTCTCCC
DNA 2: TGGTGGCTACGACGGGATT
B13: AUGCUUG (DNA:RNA)
RNA: B1 RNA with G25A, A26U, U27G, U28C, U31G
DNA 1: CAATCTGAATTCCGGTCTCCC
DNA 2: TGGTGGCTACGACGGGATT
B14: CGAUGGU (DNA:RNA)
RNA: B1 RNA with G25C, A26G, U27A, U29G, U30G
DNA 1: CAATCTGAATTCCGGTCTCCC
DNA 2: TGGTGGCTACGACGGGATT
B15: UCACUUA (DNA:RNA)
RNA: B1 RNA with G25U, A26C, U27A, U28C, U31A
DNA 1: CAATCTGAATTCCGGTCTCCC
DNA 2: TGGTGGCTACGACGGGATT
B16: CUAAGCA (DNA:RNA)
RNA: GGGAGACCGGAAUUCAGAUUGUCCCUAAGCAUUAAAUCCCGUCGUAGCCACCA
DNA 1: CAATCTGAATTCCGGTCTCCC
DNA 2: TGGTGGCTACGACGGGATT
B17: ACAAAAU (DNA:RNA)
RNA: B16 RNA with C25A, U26C, G29A, C30A, A31U
DNA 1: CAATCTGAATTCCGGTCTCCC
DNA 2: TGGTGGCTACGACGGGATT
B18: UGGAGGC (DNA:RNA)
RNA: B16 RNA with C25U, U26G, A27G, C30G, A31C
DNA 1: CAATCTGAATTCCGGTCTCCC
DNA 2: TGGTGGCTACGACGGGATT
B19: GUCGUGG (DNA:RNA)
RNA: B1 RNA with A26U, U27C, U28G, U30G, U31G
DNA 1: CAATCTGAATTCCGGTCTCCC
DNA 2: TGGTGGCTACGACGGGATT
B20: UCACCCU (DNA:RNA)
RNA: B16 RNA with C25U, U26C, A28C, G29C, A31U
DNA 1: CAATCTGAATTCCGGTCTCCC
DNA 2: TGGTGGCTACGACGGGATT
B21: UGCGCGG (DNA:RNA)
RNA: GGGAGACCGGAAUUCAGAUUGUCCUGCGCGGUUAAAUCCCGUCGUAGCCACCA
DNA 1: CAATCTGAATTCCGGTCTCCC
DNA 2: TGGTGGCTACGACGGGATT
B22: ACUUCUC (DNA:RNA)
RNA: B1 RNA with G25A, A26C, U29C, U31C
DNA 1: CAATCTGAATTCCGGTCTCCC
DNA 2: TGGTGGCTACGACGGGATT
B23: CCGGAGA (DNA:RNA)
RNA: B16 RNA with U26C, A27G, A28G, G29A, C30G
DNA 1: CAATCTGAATTCCGGTCTCCC
DNA 2: TGGTGGCTACGACGGGATT
B24: GGGGUGG (DNA:RNA)
RNA: B21 RNA with U25G, C27G, C29U
DNA 1: CAATCTGAATTCCGGTCTCCC
DNA 2: TGGTGGCTACGACGGGATT
B25: CAUCCAU (DNA:RNA)
RNA: B1 RNA with G25C, U28C, U29C, U30A
DNA 1: CAATCTGAATTCCGGTCTCCC
DNA 2: TGGTGGCTACGACGGGATT
B26: GCACGGG (DNA:RNA)
RNA: B16 RNA with C25G, U26C, A28C, C30G, A31G
DNA 1: CAATCTGAATTCCGGTCTCCC
DNA 2: TGGTGGCTACGACGGGATT
B27: AGACAUG (DNA:RNA)
RNA: B21 RNA with U25A, C27A, G28C, C29A, G30U
DNA 1: CAATCTGAATTCCGGTCTCCC
DNA 2: TGGTGGCTACGACGGGATT
B28: GGGCAUC (DNA:RNA)
RNA: B1 RNA with A26G, U27G, U28C, U29A, U31C
DNA 1: CAATCTGAATTCCGGTCTCCC
DNA 2: TGGTGGCTACGACGGGATT
B29: CGCGUAG (DNA:RNA)
RNA: B21 RNA with U25C, C29U, G30A
DNA 1: CAATCTGAATTCCGGTCTCCC
DNA 2: TGGTGGCTACGACGGGATT
B30: UUAGAAU (DNA:RNA)
RNA: B16 RNA with C25U, A28G, G29A, C30A, A31U
DNA 1: CAATCTGAATTCCGGTCTCCC
DNA 2: TGGTGGCTACGACGGGATT
B31: GGGAAUC (DNA:RNA)
RNA: B1 RNA with A26G, U27G, U28A, U29A, U31C
DNA 1: CAATCTGAATTCCGGTCTCCC
DNA 2: TGGTGGCTACGACGGGATT

The target of the assay is T1, RBFOX1 RRM (Homo sapiens, UniProt Q9NWB1 109-208).
T1 sequence: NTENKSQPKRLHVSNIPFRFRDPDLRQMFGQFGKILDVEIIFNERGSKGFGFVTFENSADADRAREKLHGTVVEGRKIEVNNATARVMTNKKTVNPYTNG
Briefly: EMSA; HiTS-Eq, 1 nM pool, 10 min; buffer printed only for the single-RNA assays: 10 mM Tris pH 7.5, 150 mM NaCl, 3.4 mM EDTA, 0.001% NP-40, 30 C. To be noted: tags: His6 N-terminal (pET28a); label: 5' 32P. In a few lines: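 Purified wild-type or mutant RbFox RRM at increasing concentrations was equilibrated with 1 nM of 5′-radiolabelled RNA carrying 7 randomized nucleotides for 10 min in 50 µL. Unbound RNA was separated by 8% native PAGE and sequenced. Relative association constants came from read-count changes of each RNA species compared with the control reaction, normalised to the cognate motif.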
For orientation: Mobility shift assays separate free from complexed probe on a gel.
Consider B1, for which the binding signal was 0.0168 KA relative to UGCAUGU. In the case of B2, the binding signal was 0.00628 KA relative to UGCAUGU. To B3 belongs 0.018 KA relative to UGCAUGU; to B4, 0.00556 KA relative to UGCAUGU; to B5, 0.00531 KA relative to UGCAUGU. B6: the binding signal was 0.0185 KA relative to UGCAUGU.

In the case of B7, the binding signal was 0.0169 KA relative to UGCAUGU. To B8 belongs 0.0139 KA relative to UGCAUGU; to B9, 0.0206 KA relative to UGCAUGU; to B10, 0.00565 KA relative to UGCAUGU.

As to B11, the binding signal is 0.00985 KA relative to UGCAUGU. As to B12, the binding signal is 0.00357 KA relative to UGCAUGU. To B13 belongs 0.0339 KA relative to UGCAUGU; to B14, 0.0162 KA relative to UGCAUGU; to B15, 0.000884 KA relative to UGCAUGU. B16: the binding signal was 0.00722 KA relative to UGCAUGU.

Consider B17, for which the binding signal is 0.000999 KA relative to UGCAUGU. As for B18, the binding signal is 0.0186 KA relative to UGCAUGU. As for B19, the binding signal is 0.0185 KA relative to UGCAUGU. To B20 belongs 0.0019 KA relative to UGCAUGU; to B21, 0.0258 KA relative to UGCAUGU.

For the molecule B22, the binding signal is 0.00885 KA relative to UGCAUGU. As for B23, the binding signal was 0.0106 KA relative to UGCAUGU. As for B24, the binding signal is 0.0333 KA relative to UGCAUGU. With B25 the figure was 0.000182 KA relative to UGCAUGU; with B26, 0.0204 KA relative to UGCAUGU; with B27, 0.0099 KA relative to UGCAUGU. As to B28, the binding signal is 0.0179 KA relative to UGCAUGU. For the molecule B29, the binding signal is 0.0133 KA relative to UGCAUGU.

For B30, the binding signal is 0.00773 KA relative to UGCAUGU. With B31 the figure was 0.0328 KA relative to UGCAUGU.
